Results reported in the BET-seq Pho4 binding data (Le et al. 2018).
The list shows a part of the results. The energies were worked out here from pooled read counts, against the library average; single values are noisy.

molecular target: T1, Pho4 (S. cerevisiae) (UniProt P07270); assay: relative binding free energy (BET-seq); higher = weaker binding; details: reference: library average
T1 sequence: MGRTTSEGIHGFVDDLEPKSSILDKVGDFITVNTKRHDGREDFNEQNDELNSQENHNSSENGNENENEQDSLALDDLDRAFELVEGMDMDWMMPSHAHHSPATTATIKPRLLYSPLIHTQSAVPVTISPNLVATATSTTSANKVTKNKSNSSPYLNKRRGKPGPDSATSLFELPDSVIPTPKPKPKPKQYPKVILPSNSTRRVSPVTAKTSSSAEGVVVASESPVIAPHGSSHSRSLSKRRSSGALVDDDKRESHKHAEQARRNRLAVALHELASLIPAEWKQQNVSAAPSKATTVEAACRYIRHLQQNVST

Sequence | relative binding free energy [kcal/mol]
TTCGGCACGTGGAAGG | -0.05
ATGAGCACGTGATATG | -0.04
GCTGGCACGTGGTCTT | -0.19
GGGCACACGTGAGAGT | 0.23
TGTCTCACGTGGCTAG | 0.23
GGCGGCACGTGGAGTC | 0.01
TCATTCACGTGTGCGT | 0.26
GTTTGCACGTGGGGCC | -0.05
GTTGTCACGTGGCAGG | -0.09
AATGTCACGTGGTAGG | -0.03
TTCCGCACGTGTTGGG | -0.14
TGTTGCACGTGGCAAG | -0.05
AAGAGCACGTGGGCGG | -0.32
GTAGTCACGTGATTGA | 0.25
TAGTCCACGTGGAGGT | 0.02
TAGTGCACGTGAGTTC | 0.24
ACGTGCACGTGGCAGT | 0.04
TTAAACACGTGGGGCG | -0.06
AGTCTCACGTGATATG | 0.32
ATGCGCACGTGTGTTT | -0.03
TGTAGCACGTGGCAGT | -0.21
TTGTACACGTGGAGCT | 0
GTATGCACGTGAATGG | 0.17
GTTTACACGTGCTTAA | 0.1
TTAAACACGTGTTTGT | -0.06

Sequence | relative binding free energy [kcal/mol]
TTACACACGTGTTTTG | 0.04
ATTGCCACGTGGGTTT | -0.3
GCGAGCACGTGTGTGT | 0.04
AAGGGCACGTGAATTT | 0.11
ATGGACACGTGTGAAT | 0.1
TATGGCACGTGGTACG | -0.2
TGGTTCACGTGTAGGA | 0.26
ACTGGCACGTGGTCGG | -0.36
TGTAACACGTGAAGGG | 0.36
GTAGGCACGTGGGGGC | -0.23
GGGTACACGTGATGCG | 0.12
ATTTGCACGTGATAGT | 0.12
CGGGTCACGTGTGGAC | 0.29
GTAGACACGTGAGCGG | 0.18
ACGTACACGTGTTGTG | 0.06
TTGGGCACGTGCGTGC | -0.2
ATGTTCACGTGGAGCT | 0.19
ATATGCACGTGAGCGT | -0.06
TTCGGCACGTGTATTG | -0.15
ATTATCACGTGTTTTT | 0.23
GGGAGCACGTGAGTCG | 0.21
TATATCACGTGATTGC | 0.16
GGATGCACGTGGCGCT | 0.02
GCTGGCACGTGAGCGG | 0.21
TAGGGCACGTGGAATG | -0.09

Sequence | relative binding free energy [kcal/mol]
GGCGGCACGTGTAGTT | -0.02
CAGGTCACGTGTGTGT | 0.12
GGGGGCACGTGTTCGC | -0.08
TGATTCACGTGGGGGC | 0.24
ATTTACACGTGTCGTA | 0.01
TGCGTCACGTGAAGGG | 0.22
CATTGCACGTGTGGAT | 0.01
GTAGCCACGTGGGTAT | -0.1
TGGATCACGTGTAGAA | 0.3
ATGTGCACGTGTAGAT | 0
TGTACCACGTGTGGAA | 0.16
TGTGTCACGTGCAGTT | 0.06
GATGGCACGTGGTATA | -0.11
AGGGGCACGTGGTAAG | -0.11
GTATTCACGTGTAGAG | 0.19
GGTTTCACGTGATATT | 0.41
GGATTCACGTGAAAGG | 0.27
TTTGGCACGTGTCGAA | -0.12
ATCTGCACGTGTTAAT | 0
TTCGTCACGTGTGAAT | 0.21
GTCGGCACGTGTGGGT | -0.06
TTATCCACGTGGGGGA | -0.15
TTAGGCACGTGGAGTC | -0.08
CTAGTCACGTGATAGT | 0.14
TAGGCCACGTGTGGTA | -0.17

Sequence | relative binding free energy [kcal/mol]
TGCTCCACGTGGAGGT | 0.09
GGTGTCACGTGGAGCT | 0.14
ATAAGCACGTGTTAGT | -0.1
TTGTTCACGTGTTACA | 0.27
GGAAGCACGTGATGCG | 0.05
GGGGTCACGTGTCGAG | 0.14
AGGATCACGTGAGCGT | 0.3
TAGGTCACGTGGATTG | 0.24
TGTATCACGTGAGACG | 0.31
GGTTCCACGTGGGGTA | -0.16
TGATGCACGTGATAGG | 0.04
ACTTTCACGTGTTGGT | 0.08
TTTGCCACGTGTTTGA | -0.01
CAGGGCACGTGGTATT | -0.05
TAAGTCACGTGTAAGT | 0.06
GCATTCACGTGATGAT | 0.37
GGAAGCACGTGGGTTG | -0.04
TGGTGCACGTGCTATA | -0.12
TTTATCACGTGCGTTA | 0.1
ATTTACACGTGAGTCT | 0.21
AGGGTCACGTGGGGCG | 0.01
GGTTCCACGTGGATTG | 0.2
GACTTCACGTGGGGGG | 0.18
TGCTCCACGTGTTGGG | 0.02
TGAATCACGTGAAGAG | 0.35

Sequence | relative binding free energy [kcal/mol]
TTATTCACGTGACGAG | 0.35
GGGTGCACGTGTCGTA | 0.11
TTATGCACGTGTACAG | 0.05
ATGTACACGTGCATGT | -0.01
ATGTTCACGTGAGAAA | 0.34
TTTGTCACGTGTGTAG | 0.12
AGGCGCACGTGGTGGG | -0.06
GTCAGCACGTGTGGTG | -0.03
AGTTGCACGTGTTACT | -0.01
TAAAGCACGTGTAAGG | 0.1
AAGGTCACGTGTGTTC | 0.13
CTATGCACGTGGTGTA | -0.28
TAAAACACGTGGATTT | 0.06
TAAGGCACGTGTGGAC | 0.13
GTGTACACGTGTATTG | 0.14
AGGTGCACGTGAGGGG | 0.24
GATGTCACGTGGTGGG | 0.2
GGCAGCACGTGTATTG | 0.13
GGCGTCACGTGGCTTT | 0.07
CATTACACGTGGTGTG | 0.1
TAGGACACGTGTGATT | 0.22
TTGAGCACGTGTATAT | 0.03
TGGGCCACGTGGTCAT | -0.2
TATGGCACGTGGTGGA | 0
TTTGGCACGTGGCGGC | -0.27

Sequence | relative binding free energy [kcal/mol]
ATTGTCACGTGCTTGC | 0.02
GTAGTCACGTGGACAG | 0.15
CTAGTCACGTGAGGTG | 0.21
CGTAACACGTGTGGAG | -0.04
TTAGCCACGTGGTTGA | -0.22
ATGGTCACGTGTAAGA | 0.22
CAAATCACGTGATGGG | 0.27
TTTGTCACGTGAGCAG | 0.24
GGGGGCACGTGTTTGT | -0.09
AGGAGCACGTGTAATG | 0.1
TGTGCCACGTGCATGT | -0.15
GTGGCCACGTGGTTAT | 0.01
TTCAGCACGTGTTTTG | -0.01
AAGGCCACGTGGTTGT | -0.16
TGGTCCACGTGACGGG | 0.19
TGAAGCACGTGTTATT | -0.14
GGCCTCACGTGGGTTG | 0.15
GCGAACACGTGGTTGG | 0.05
GTGGACACGTGATGAG | 0.22
GTGTGCACGTGGCGGC | -0.02
TGAATCACGTGTGTTA | 0.14
